Reference: PubChem BioAssay AID1347073 (National Center for Advancing Translational Sciences (NCATS), 2019)
Among all 45,000 compounds or so, about 200 (0.44%) were called active. About 7% were inconclusive and are not listed. Calls come from the whole dose curve; as a rule, active = well fitted activation curve with a large enough effect; inconclusive = small, poorly fitted or top-dose-only effect; inactive = no such curve, though single readings can be large or run the other way. Some of the results follow.

experiment: qHTS of TDP-43 Inhibitors: NCGC Sytravon Library Screen; settings: yeast TDP-43 toxicity rescue, BacTiter-Glo growth, 24 h; series mostly up to 46.1 µM; growth rescue (activation): at the top concentration; note: 0% is about no effect; nearly all actives have a fitted effect of over 55% in size
How it was run: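 TDP-43-expressing yeast, pregrown in raffinose, seeded at OD600 0.02 in galactose medium with compound for 24 hr at 30 deg C. Growth read by BacTiter-Glo luminescence, so rescue of toxicity appears as activation.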

SMILES | growth rescue (activation)
COc1cccc(CN2CCN(C(=O)c3cccs3)CC2)c1OC | inactive: -5.13%
Cc1nn(C)c(Cl)c1C(=O)NC(C(=O)O)c1ccccc1 (stereo not drawn) | inactive: -4.55%
Cc1cc2ccccc2c(=O)n1CC(=O)N1CCN(c2cccc(Cl)c2)CC1 | inactive: 10.3%
O=S(=O)(c1ccc(Br)cc1)c1cnc2ccccc2n1 | inactive: -2.69%
N#Cc1c(-c2ccco2)nc(NCC2CCCO2)[nH]c1=O (stereo not drawn) | inactive: 11.6%
Cc1cccc(CC2S/C(=N/N=C/c3ccco3)N(c3ccccc3)C2=O)c1 (stereo not drawn) | inactive: 9.68%
Cc1cc(C)cc(C(O)c2ncc(-c3ccccc3F)[nH]2)c1 (stereo not drawn) | inactive: 11.8%
CCCCN(CC)Cc1ccc(CNC(=O)Nc2ccc(Cl)cc2)o1 | inactive: -31.7%
Cc1cnn(-c2nc(-c3ccccc3)cc(-c3ccccc3)n2)c1 | inactive: 10.2%
O=C(NCc1cccnc1)c1cc(C2CCCN(C(=O)CCCc3ccccc3)C2)on1 (stereo not drawn) | inactive: 2.36%
O=S(=O)(NCC1CCCO1)c1ccc(-c2ccc(Cl)cc2)cc1 (stereo not drawn) | inactive: -6.84%
COc1ccc(C2C(C(=O)NCc3ccccn3)CCC(=O)N2c2cc(OC)c(OC)c(OC)c2)cc1 (stereo not drawn) | inactive: 6.6%
O=C(NN1CCOCC1)c1ccc(Cl)s1 | inactive: 5.72%
CC(=O)c1c(C)[nH]c(C(=O)COC(=O)c2ccc(C)s2)c1C | inactive: 11.9%
Cc1cccc(/C=N/NC(=O)c2ccc(NC(=O)c3ccccc3Cl)cc2)n1 | inactive: 4.13%
CC1(c2cccc(Br)c2)NC(=O)NC1=O (stereo not drawn) | inactive: -17.6%
Cc1ccc(S(=O)(=O)NCCc2nnc(SCc3cccnc3)n2C)cc1 | inactive: -3.02%
O=C(NC(NC(=S)Nc1ccccc1O)C(Cl)(Cl)Cl)c1ccco1 (stereo not drawn) | inactive: 17.1%
C[N+](C)(C)CCN1C(=O)CSC1=O | inactive: -11.6%
O=C(c1cc(-c2ccc(Cl)c(Cl)c2)on1)N1CCCCCC1 | inactive: -10.6%
O=C(c1cccnc1)N1N=C(C2CC2)CC1(O)C(F)(F)F (stereo not drawn) | inactive: -13.9%
Cn1c(SCC(=O)N2CCc3ccccc32)nnc1-c1ccc(S(=O)(=O)N2CCCC2)cc1 | inactive: -4.59%

SMILES | growth rescue (activation)
CCCCC(=O)N(C)c1c(C)nc2ccc(C(=O)N3CCN(S(=O)(=O)CC)CC3)cn12 | inactive: 17.9%
CCCN1C(=O)c2cc(C(=O)Nc3ccc(OC)c(OC)c3)ccc2C1Nc1ccc(OC)c(OC)c1 (stereo not drawn) | inactive: -3.26%
O=C(NNC(=O)c1cc(-c2ccccc2)n(-c2ccccc2)n1)c1cccc([N+](=O)[O-])c1 | inactive: 19.3%
C/C(Cc1ccccc1)=N\NC(=O)CNC(=O)c1ccc(Cl)cc1Cl | inactive: 9.24%
CO/N=C/c1cccn1-c1nccc(N(C)C)c1C#N | inactive: -7.73%
O=C1/C(=C/c2cccc(F)c2)SC(=S)N1NS(=O)(=O)c1ccccc1 | inactive: 1.07%
CCCCc1cc(=O)oc2cc(O)cc(O)c12 | inactive: 0.295%
Cc1cc(C)nc(Sc2ccc([N+](=O)[O-])cc2[N+](=O)[O-])n1 | inactive: 11.9%
C=CCOc1cccc(CNn2nnnc2N)c1 | inactive: 1.64%
O=C(Nc1cccc(Cl)c1)c1cc(-c2ccco2)on1 | inactive: 16.1%
COc1cc(/C=C/C(=O)NC(C)(C)C)ccc1OCc1ccccc1 | inactive: 27.9%
COc1ccc(Cl)cc1/C=C1/C(=O)ON=C1C | inactive: -20.3%
Cc1cc(=O)[nH]c(N/N=C/c2ccc(Br)s2)n1 | inactive: 16.1%
Cn1cc(C(=O)N/N=C/C=C/c2ccccc2)ccc1=O | inactive: 18.4%
N#CC(C#N)=C1C=CC=CN1/C(=C\c1ccco1)C(=O)c1ccc(Cl)cc1 | inactive: -7.03%
CCCCCOc1ccc(NC(=O)C(=O)NCCC2=CCCCC2)cc1 | inactive: 0.839%
O=C(Cn1cccc1C(=O)c1ccccc1)NCc1ccc(Cl)cc1 | inactive: 20.8%
COc1ccc(C(=O)Nc2ccccc2)cc1NC(=O)c1ccc([N+](=O)[O-])cc1 | inactive: 8.35%
Nc1c(C(=O)N2CCOCC2)sc2nc3c(cc12)CCCC3 | inactive: 4.41%
COc1ccc(NC(=O)CNC(=O)Cn2ccc3ccccc3c2=O)c(OC)c1 | inactive: -6.44%
CC1CC[C@@]2(OC1)O[C@H]1CC3[C@@H]4C[C@@H](O)[C@@]5(O)C[C@@H](O)[C@H](O)C[C@]5(C)[C@H]4CC[C@]3(C)[C@H]1[C@@H]2C (stereo partly drawn) | inactive: 0.474%
COc1ccc(NC(=O)Nc2ccc(Cc3ccncc3)cc2)c(OC)c1 | inactive: -17.5%

SMILES | growth rescue (activation)
Cc1ccccc1CSc1nc(C(C)(C)C)cc(=O)[nH]1 | inactive: 3.13%
COc1ccc(OC)c2[nH]c(=O)c(CCNS(=O)(=O)c3ccc(F)cc3)cc12 | inactive: -16%
CC(C)CC(=O)N1CCN(c2ccc(NC(=O)c3ccco3)cc2)CC1 | inactive: 8.54%
O=C(O)Cc1ccc(NC(=O)c2ccc(Cl)c(Cl)c2)cc1 | inactive: -10.3%
OCC1(Cc2ccccc2)CCN(Cc2cc3ccccc3o2)CC1 | inactive: 3.52%
CCOC(=O)/C(N=Nc1ccc(Cl)cc1)=C(/O)c1ccc([N+](=O)[O-])cc1 | inactive: 19.1%
CC1CN(C(=O)COC(=O)c2cc3ccccc3cc2O)CC(C)O1 (stereo not drawn) | inactive: 4.63%
CCN1C(=O)/C(=C/c2ccc(N3CCCC3)cc2)NC1=S | inactive: 28.9%
NC(=O)COC(=O)c1ccc2c(c1)C(=O)N(Cc1ccco1)C2=O | inactive: 18.3%
COc1ccc(CC(CC(=O)O)C(=O)NCc2ccccc2)cc1 (stereo not drawn) | inactive: -0.655%
O=C(O)C12C[C@H]3C[C@@H](C1)CC(n1ncc(N4CCN(c5ccccc5)CC4)c(Cl)c1=O)(C3)C2 | inactive: 12.5%
CCOC(=O)C1C(=O)OC(C)(C)C1C(C)C(=O)c1ccc(C)cc1C (stereo not drawn) | inactive: 1.15%
Cc1cc2ccccn2c1C(=O)c1ccccc1F | inactive: 25.4%
CCn1c(CC(=O)Nc2ccc(F)cc2)nnc1SCC(=O)Nc1nncs1 | inactive: -4.35%
COC(=O)[C@@H](NC(=O)c1cc(COc2cncc(Cl)c2)on1)c1ccccc1 | inactive: 20.5%
O=C(CSC1CC(=O)N(c2ccc(C(=O)O)cc2)C1=O)Nc1ccc(Cl)cc1 (stereo not drawn) | inactive: -0.0087%
COC(=O)c1ccc(C(=O)OC)c(NC(=O)C(C)C)c1 | inactive: 13.8%
O=C(O)c1ccc(-n2c(=O)c3ccccc3c3ccccc3c2=O)cc1 | inactive: 5.96%
CC(Nc1ccccc1)c1ccncc1 (stereo not drawn) | inactive: 2.8%
COc1ccc(C2c3ccc(O)cc3Oc3ncn4nc(-c5ccncc5)nc4c32)cc1OC (stereo not drawn) | inactive: 7.74%
Cc1cc(C)n(C(=O)CCNC(=O)c2ccccc2Br)n1 | inactive: 22.8%
Cc1ccc(-c2csc3ncn(CC#N)c(=O)c23)cc1C | inactive: 27.1%

SMILES | growth rescue (activation)
CCN(CC)S(=O)(=O)c1ccc(NC(=O)c2cc(-c3cccs3)nc3ccccc23)cc1 | inactive: 10.4%
C/C(=N\NC(=O)CSc1nc(C)[nH]c1[N+](=O)[O-])c1ccc(F)cc1 | inactive: 2.81%
CN(c1ccc(OCC(=O)N2CCN(c3ccc(F)cc3)CC2)cc1)S(=O)(=O)c1cccs1 | inactive: 20.4%
CCNC(=O)C1(C)CCN(C(=O)c2ccc(C(=O)OC)cc2)C1 (stereo not drawn) | inactive: 6%
CCOc1cc(N2CCOCC2)c(OCC)cc1NC(=O)CSc1nccc(C)n1 | inactive: 13.3%
Cc1ccc(/C=N/NC(=O)c2cc(-c3ccc(C)o3)[nH]n2)cc1 | inactive: 18.9%
COC(=O)C1=C(C)NC(=O)/C1=C\c1cc(C)n(-c2ccccc2)c1C | inactive: 4.92%
C=CCN(CC=C)Cc1cc(=O)n2c(-c3ccccc3)csc2n1 | inactive: 3.95%
O=[N+]([O-])c1cccc2ccc(/C=C/c3ccc(C(F)(F)F)cc3)nc12 | inactive: 12.8%
O=C(COc1ccc2ccccc2c1)NNC(=O)Cc1ccccc1 | inactive: 24.6%
COc1ccc(C(=O)COC(=O)c2ccc(N(C)C)cc2)cc1 | inactive: -0.261%
Cc1cccn2c(=O)c3cc(C(=O)NCc4ccco4)c(=N)n(C4CCCC4)c3nc12 | inactive: -13.3%
[O-]/C(=C(\C(=S)NCCN1CCOCC1)[n+]1ccccc1)c1ccc(Cl)s1 | inactive: 14%
COc1cccc(/C=N/Nc2cc(N3CCOCC3)ncn2)c1O | inactive: 13.5%
CCCCNC(=O)OCCNC(=O)Oc1cccc(C)c1 | inactive: -3.84%
CN(CCn1ccnc1)C(=O)CC1C(=O)NCCN1Cc1ccccc1C(F)(F)F (stereo not drawn) | inactive: 9.84%
CC(C)c1ccc(C(=O)Nc2ccc(N3CCOCC3)cc2)cc1 | inactive: 23.7%
COc1ccc(NC(=O)C(C)SCc2ccccc2)cc1 (stereo not drawn) | inactive: 33.9%
O=C(CCCc1cccs1)Nc1nccs1 | inactive: 1.04%
CN(C)c1ccc(/C=C/C(=O)c2cccnc2)cc1 | inactive: -2.62%
COc1ccc(CC(=O)NC(C)C2COc3ccccc3O2)cc1OC (stereo not drawn) | inactive: -12.8%
C/C=C/c1ccc(OCCOCCOc2cccc3cccnc23)c(OC)c1 | inactive: 12.7%

SMILES | growth rescue (activation)
CCC(C)(C)n1nnnc1C(c1ccccc1)N1CCN(Cc2ccccc2)CC1 (stereo not drawn) | inactive: 11.3%
CC(C)(C)c1nnc(NS(=O)(=O)c2ccc(F)cc2)s1 | inactive: -4.87%
COc1ccc2c(c1)c1c3n2CCN(C)C3=NCC1 | inactive: -1.37%
Cc1ccccc1OCCC(=O)OCC(=O)NC(C)c1ccccc1 (stereo not drawn) | inactive: 6.67%
COc1ccc(NC(=O)C2(C)Cc3c(-c4cccc(C(N)=O)c4)ccnc3O2)cc1OC (stereo not drawn) | inactive: -1.52%
CN1CCC(N(C)C(=O)Cc2ccccc2[N+](=O)[O-])CC1 | inactive: -1.72%
Cc1nnc(NC(=O)CCC(=O)N2CCN(S(=O)(=O)c3cc([N+](=O)[O-])ccc3C)CC2)s1 | inactive: 16.2%
C=CCOc1c(Cl)cc(CNCCCN2CCOCC2)cc1OC | inactive: -0.685%
O=C(Nc1ccccc1)NN(C(=O)CCl)c1ccccc1 | inactive: 10.4%
Cc1ccc(OCC(=O)NNc2c3ccccc3nc3ccccc23)cc1 | inactive: 3.61%
Cc1ccc2c(Cl)cc(Cl)c(OCC(=O)Nc3cc(S(=O)(=O)N(C)C)ccc3C)c2n1 | inactive: -3.19%
CC(C)c1ccc(/C=C2\NC(=S)N(Cc3cccnc3)C2=O)cc1 | inactive: 8.73%
Cc1ccc2nc(NCCC(=O)O)nc(-c3ccccc3)c2c1 | inactive: 4%
Cc1ccccc1-c1nnc(CS(=O)(=O)c2ccccc2)o1 | inactive: 24.1%
Cc1ccc(S(=O)(=O)N(Cc2ccc(Cl)cc2)c2ccccc2C(=O)NCc2cccnc2)cc1 | inactive: 18.2%
CC1=CC(c2ccccc2)NC(=S)N1 (stereo not drawn) | inactive: 23.3%
CNc1cccc(-c2cc(OC)ccc2OC)n1 | inactive: -2.01%
CCOC(=O)C1(Cc2ccc(Cl)cc2)CCN(C(=O)CCc2ccncc2)CC1 | inactive: 5.81%
COc1ccc(N(CCC#N)C(=O)/C(C#N)=C/c2cccs2)cc1 | inactive: 7.94%
COc1ccc(CN(CC(=O)NCC2CCCO2)C(=O)CCC(=O)Nc2nccs2)cc1 (stereo not drawn) | inactive: 3.78%
